In PubChem BioAssay AID485367 (National Center for Advancing Translational Sciences (NCATS), 2010):
Screen size: about 330,000 compounds; about 560 (0.17%) were called active. Inconclusive results, whose numbers are uncertain, are shown with a selection of clear calls. Calls come from the whole dose curve; as a rule, active = well fitted inhibition curve with a large enough effect; inconclusive = small, poorly fitted or top-dose-only effect, or effect the other way; inactive = flat fitted curve, though single readings scatter. No potency is given beside an inconclusive call; the fits are too rough.

Target: ATP-dependent 6-phosphofructokinase (Trypanosoma brucei brucei) (UniProt O15648)
Experiment: qHTS Assay to Find Inhibitors of T. brucei phosphofructokinase; note: nearly all actives have a fitted effect of over 60% in size;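 for activity, negative = inhibition: 0% = uninhibited 1x PFK enzyme wells and -100% = no-enzyme wells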
Conditions: T. brucei PFK, ADP-Glo luminescence; activity, negative = inhibition: at 57.5 µM (top of the series)
Method in brief: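 PFK 1.25 nM, F6P 0.5 mM, ATP 0.1 mM, 0.1 M TEA pH 8.0, 5 mM MgCl2, 0.01% Tween20, 0.1% BSA; 45 min RT. ADP-Glo readout. qHTS titration up to 57 uM; curves fitted, compounds curve-classed.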
Potency is the fitted concentration of half-maximal effect; tags give direction and shape of the fitted curve.

UniProt O15648, sequence (O15648 whole entry, looked up): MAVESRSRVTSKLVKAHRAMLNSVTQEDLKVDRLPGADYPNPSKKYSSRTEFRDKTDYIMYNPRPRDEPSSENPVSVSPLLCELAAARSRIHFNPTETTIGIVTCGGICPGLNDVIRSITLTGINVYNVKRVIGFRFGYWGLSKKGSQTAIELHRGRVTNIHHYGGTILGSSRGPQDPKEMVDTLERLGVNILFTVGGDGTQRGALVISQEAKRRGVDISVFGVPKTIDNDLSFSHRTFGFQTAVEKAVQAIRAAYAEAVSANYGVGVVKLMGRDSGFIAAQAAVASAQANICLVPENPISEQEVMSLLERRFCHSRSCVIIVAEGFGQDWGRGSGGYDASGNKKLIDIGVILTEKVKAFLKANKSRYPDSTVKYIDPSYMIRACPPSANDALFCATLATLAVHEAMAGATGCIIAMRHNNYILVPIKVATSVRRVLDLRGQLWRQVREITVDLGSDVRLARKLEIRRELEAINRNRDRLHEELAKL

SMILES | activity, negative = inhibition | Potency
CCOc1ccc(NS(=O)(=O)c2c(C)nc3sccn3c2=O)cc1 | inactive: -2.83% | 
COc1c(O)cc(O)c2c(=O)cc(-c3ccccc3)oc12 |  | inconclusive [activator, single point]
O=c1cc(/N=C/c2coc3cc(Br)ccc3c2=O)[nH]c(=S)[nH]1 | inactive: 15.4% | 
CC(=O)Nc1ccc(S(=O)(=O)N2CCN(C(=O)c3ncoc3-c3ccccc3F)CC2)cc1 |  | inconclusive [falling, single point]
Cn1c(SCC(=O)Nc2nccs2)nnc1-c1ccncc1 |  | inconclusive [falling, single point]
N#CCn1c(CCl)nc2ccccc2c1=O | inactive: -1.16% | 
NS(=O)(=O)c1ccc(CCNC(=O)c2ccc(Cl)c(S(=O)(=O)N3CCCCC3)c2)cc1 | inactive: -1.73% | 
COc1ccc(C2=NNC(=Nc3cc(S(=O)(=O)N(C)C)ccc3C)SC2)c(OC)c1 | inactive: 0.492% | 
COc1cc(Br)c(Br)cc1N |  | inconclusive [falling, partial curve]
N[C@@H](CCC(=O)N[C@@H](CSN=O)C(=O)NCC(=O)O)C(=O)O |  | inconclusive [activator, partial curve]
c1ccc(-c2nc3ccccc3o2)nc1 | inactive: -0.951% | 
CCc1ccc(S(=O)(=O)/N=C2\C=C(Nc3ccc(C(=O)O)cc3)C(=O)c3ccccc32)cc1 | inactive: -2.8% | 
CCCc1cc(=O)oc2cc(OCC(=O)Nc3ccc(S(N)(=O)=O)cc3)ccc12 |  | inconclusive [falling, partial curve]
Cc1ccc(S(=O)(=O)NN2C(=O)/C(=C/c3cccnc3)SC2=S)cc1 |  | inconclusive [falling, partial curve]
O=C(CN1CCN(S(=O)(=O)c2cc(Cl)ccc2Cl)CC1)c1ccc(O)c(O)c1 |  | inconclusive [falling, single point]
COC(=O)c1ccc2c(c1)C(C)(C)C(/C=C/c1ccccc1O)=[N+]2C |  | active: 13.5 µM
O=C(Nc1cccc(Cl)c1)ON=C1c2ccccc2-c2ccccc21 |  | inconclusive [activator, single point]
O=C(N/N=C/c1ccc(OC(=O)c2cccs2)cc1)c1cccc(F)c1 |  | inconclusive [falling, partial curve]
CC1CCCN(c2ccc(C(=O)OCn3nnc4ccccc4c3=O)cc2[N+](=O)[O-])C1 (stereo not given) |  | inconclusive [falling, single point]
NC(=S)NNc1cccc(Cl)c1 |  | inconclusive [falling, single point]
